Hit rate of the full screen: of about 310,000 compounds, about 14,000 (4.5%) showed an effect of 50% or more. Effects have a minus sign here. Some of the results follow.
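Further: peak tail current of the secondary pulse compared with the same well before compound.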

human ether-à-go-go-related gene (hERG) potassium channel, sequence (Q12809 whole entry, looked up): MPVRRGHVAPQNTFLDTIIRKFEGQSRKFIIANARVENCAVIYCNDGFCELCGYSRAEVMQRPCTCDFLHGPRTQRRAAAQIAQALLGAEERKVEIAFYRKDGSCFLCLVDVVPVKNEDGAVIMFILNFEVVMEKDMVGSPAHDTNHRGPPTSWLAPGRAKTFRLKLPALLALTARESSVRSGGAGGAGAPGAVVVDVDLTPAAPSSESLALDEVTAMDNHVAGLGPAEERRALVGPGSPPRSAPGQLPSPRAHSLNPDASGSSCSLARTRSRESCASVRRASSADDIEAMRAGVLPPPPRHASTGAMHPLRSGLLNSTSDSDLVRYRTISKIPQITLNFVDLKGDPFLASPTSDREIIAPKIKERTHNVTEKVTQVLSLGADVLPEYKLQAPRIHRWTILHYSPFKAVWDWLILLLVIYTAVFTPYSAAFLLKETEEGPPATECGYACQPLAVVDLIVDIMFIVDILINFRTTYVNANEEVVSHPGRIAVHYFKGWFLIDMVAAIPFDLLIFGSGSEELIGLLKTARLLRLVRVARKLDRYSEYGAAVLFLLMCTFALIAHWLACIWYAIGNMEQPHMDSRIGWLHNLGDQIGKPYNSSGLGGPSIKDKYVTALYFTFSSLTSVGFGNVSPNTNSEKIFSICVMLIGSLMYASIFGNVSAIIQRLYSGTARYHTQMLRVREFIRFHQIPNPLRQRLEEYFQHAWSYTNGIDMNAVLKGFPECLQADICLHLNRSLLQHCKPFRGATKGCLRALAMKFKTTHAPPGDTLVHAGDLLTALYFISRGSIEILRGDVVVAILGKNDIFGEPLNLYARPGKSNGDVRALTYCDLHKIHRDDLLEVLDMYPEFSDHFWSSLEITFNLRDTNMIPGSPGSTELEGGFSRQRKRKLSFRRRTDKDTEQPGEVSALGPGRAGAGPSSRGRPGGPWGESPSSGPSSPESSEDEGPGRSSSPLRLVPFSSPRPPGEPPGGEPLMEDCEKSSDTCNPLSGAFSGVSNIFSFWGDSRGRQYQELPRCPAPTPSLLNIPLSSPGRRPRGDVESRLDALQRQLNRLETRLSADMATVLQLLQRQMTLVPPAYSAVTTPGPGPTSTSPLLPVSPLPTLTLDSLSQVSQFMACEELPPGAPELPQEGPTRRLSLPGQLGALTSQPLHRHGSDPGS

The assay concerns the target human ether-à-go-go-related gene (hERG) potassium channel (human, UniProt Q12809). Nature of the assay: primary screen, population patch clamp on CHO cells stably expressing hERG.
As to `CCCc1cc(=O)oc2c(C)c(OCc3nn[nH]n3)ccc12`, the “hERG current change (%, negative = inhibition) at 10uM” value came out at 2.98%.

For the compound `NS(=O)(=O)c1ccc(NC(=O)c2cc(-c3ccccc3O)n[nH]2)cc1`, the “hERG current change (%, negative = inhibition) at 10uM” value is 13.3%.

As to `Cc1cccn2c1nc(=S)n2C(=O)c1ccco1`, the “hERG current change (%, negative = inhibition) at 10uM” value is given as 13.4%.

Turning to `O=C1CN(C(=O)COC(=O)C2=COCCO2)c2ccccc2N1`, the “hERG current change (%, negative = inhibition) at 10uM” value is given as -10.7%.

As for `COc1ccc(NC(=O)CN(c2ccc(C)cc2)S(=O)(=O)c2c(C)nn(C)c2C)cc1`, the “hERG current change (%, negative = inhibition) at 10uM” value was found to be 6.26%.

Regarding `CC(=O)NCC(=O)OCC(=O)c1ccc(C)c(C)c1`, the “hERG current change (%, negative = inhibition) at 10uM” value was -0.439%.

For the compound `CCCCNC(=O)CNC(=S)N(CCCN1CCOCC1)Cc1cccs1`, the “hERG current change (%, negative = inhibition) at 10uM” value is given as -27.4%.

For `CCOc1ccccc1C(=O)NCCCCCC(=O)O`, the “hERG current change (%, negative = inhibition) at 10uM” value is recorded as 19.4%.

Take `Cc1ccc(NC(=O)CSc2ccc3nnc(-c4cccnc4)n3n2)cc1`: the “hERG current change (%, negative = inhibition) at 10uM” value is -53.1%.

As for `O=C(Nc1cccc(Cl)c1N1CCOCC1)c1cccnc1Cl`, the “hERG current change (%, negative = inhibition) at 10uM” value was -3.48%.

As to `O=C(NCCc1nc2ccccc2[nH]1)/C(=C/c1ccc(F)cc1)NC(=O)c1ccco1`, the “hERG current change (%, negative = inhibition) at 10uM” value is recorded as -62.8%.

With `NC(=O)c1c(NC(NC(=O)c2ccco2)(C(F)(F)F)C(F)(F)F)sc2c1CCCC2`, the “hERG current change (%, negative = inhibition) at 10uM” value is 5.02%.

Turning to `CC(=O)c1cccc(NC(=S)N2CCN(CCN3C(=O)c4cccc5cccc(c45)C3=O)CC2)c1`, the “hERG current change (%, negative = inhibition) at 10uM” value was found to be 9.92%.

On to `Cc1ccc(OCC(=O)NCCNC(=O)c2ccc(C)nc2)cc1`, for which the “hERG current change (%, negative = inhibition) at 10uM” value amounted to 17.3%.

For `CC(C)(C)c1ccc(S(=O)(=O)NCCOCC(F)(F)C(F)F)cc1`, the “hERG current change (%, negative = inhibition) at 10uM” value was -1.09%.

In the case of `Cc1cc(Cl)c(OCCCn2ccnc2)c(Br)c1`, the “hERG current change (%, negative = inhibition) at 10uM” value is on record as -16.8%.

Turning to `CCC(=O)Nc1cc(OC)c(NC(=O)c2ccccc2)cc1OC`, the “hERG current change (%, negative = inhibition) at 10uM” value was -0.325%.

As to `COc1ccc(C(=O)NCc2ccc(C(=O)NCC(OC)OC)cc2)cc1OC`, the “hERG current change (%, negative = inhibition) at 10uM” value was 16.4%.

For `COC(=O)[C@@H](Cc1c[nH]c2ccccc12)NC(=O)c1cc(=O)[nH]c2ccccc12`, the “hERG current change (%, negative = inhibition) at 10uM” value was 3.38%.

As for `CCOC(=O)n1cc(-c2cnc(CNC(=O)C(C)(c3ccccc3)c3ccccc3)o2)c2ccccc21`, the “hERG current change (%, negative = inhibition) at 10uM” value is -21.8%.

With `COc1ccc(O)c(CN2CCCC(C(=O)c3ccccc3SC)C2)c1` (centres unmarked), the “hERG current change (%, negative = inhibition) at 10uM” value is on record as -30.9%.

Consider `Nc1ccc(CCn2ccnc2)cc1`, for which the “hERG current change (%, negative = inhibition) at 10uM” value was determined as 33.9%.

Take `O=C(c1ccccc1)c1ccc2nc(N3CCCCC3)c3nncn3c2c1`: the “hERG current change (%, negative = inhibition) at 10uM” value is reported as 0.75%.

On to `O=c1[nH]c(N2CCCCC2)nc2c1CCCC2`, for which the “hERG current change (%, negative = inhibition) at 10uM” value is listed as -4.35%.

For the compound `Cc1nc2ccccc2c2oc(C(=O)N3CCN(c4ccc([N+](=O)[O-])cc4)CC3)cc12`, the “hERG current change (%, negative = inhibition) at 10uM” value is listed as -9.45%.

Regarding `Cc1ccc(S(=O)(=O)N2CCCCC2)cc1NC(=O)COC(=O)c1cc[n+]([O-])cc1`, the “hERG current change (%, negative = inhibition) at 10uM” value was -15.1%.

As to `CC(=O)c1c(C)[nH]c(C(=O)CSc2nnc(N)s2)c1C`, the “hERG current change (%, negative = inhibition) at 10uM” value is given as 17.3%.

Regarding `COCCNC(=O)c1ccc(N2CCC3(CC2)OCCO3)c([N+](=O)[O-])c1`, the “hERG current change (%, negative = inhibition) at 10uM” value is recorded as 12.4%.

Regarding `CCOC(=O)c1c(NC(=O)COC(=O)CNC(=O)c2ccc(Cl)cc2Cl)sc(C(=O)N(C)C)c1C`, the “hERG current change (%, negative = inhibition) at 10uM” value is recorded as -45.7%.

Take `O=C(Nc1ccc(NC(=O)c2cccs2)cc1)c1ccc2c(c1)OCO2`: the “hERG current change (%, negative = inhibition) at 10uM” value is reported as 3.29%.

With `CCCCOc1ccc(C(=O)NCC(=O)NC(C)CCc2ccccc2)cc1` (centres unmarked), the “hERG current change (%, negative = inhibition) at 10uM” value is on record as -4.99%.

Turning to `Cc1ccc(-c2nc(N)n(C(=O)c3cccs3)n2)cc1`, the “hERG current change (%, negative = inhibition) at 10uM” value is given as 6.42%.

As for `CCc1cc2c(=O)[nH]c(COC)nc2s1`, the “hERG current change (%, negative = inhibition) at 10uM” value is 17.4%.

Take `Cc1[nH][nH]c(=O)c1C(c1cc(Br)ccc1O)c1c(C)[nH][nH]c1=O`: the “hERG current change (%, negative = inhibition) at 10uM” value is reported as 12%.

Take `CCOCC(=O)Nc1cc(C(F)(F)F)ccc1Oc1cccc(Br)c1`: the “hERG current change (%, negative = inhibition) at 10uM” value is listed as -19.8%.

Regarding `C=CCNC(=O)c1cccc(OC2CCN(CC(C)(C)C)CC2)c1`, the “hERG current change (%, negative = inhibition) at 10uM” value is 13.3%.

On to `CCOC(=O)N1CCN(c2nc(-c3ccc(F)cc3)cs2)CC1`, for which the “hERG current change (%, negative = inhibition) at 10uM” value worked out at 4.23%.

For the compound `COC(=O)c1ccccc1NC(=O)CSc1nc2cccnc2n1C`, the “hERG current change (%, negative = inhibition) at 10uM” value stood at 4.99%.

On to `CCOc1ccccc1N1Cc2ccccc2C1`, for which the “hERG current change (%, negative = inhibition) at 10uM” value was 9.16%.

For `Cc1cc2cc3c(cc2nc1SCC(=O)N1CCOCC1)OCO3`, the “hERG current change (%, negative = inhibition) at 10uM” value is reported as 2.58%.

On to `CCc1cc(-c2n[nH]c(C)c2-c2ccccc2Cl)c(O)cc1OC`, for which the “hERG current change (%, negative = inhibition) at 10uM” value stood at 16.8%.

`Cc1nnc(Cl)c2nn(-c3ccccc3F)c(C)c12`: the “hERG current change (%, negative = inhibition) at 10uM” value came out at 10.3%.

For `CCn1c(SCC(=O)c2cc(OC)ccc2OC)nnc1C(C)C`, the “hERG current change (%, negative = inhibition) at 10uM” value stood at 0.936%.

Take `COc1cccc(CCC(=O)N2CCC(n3nccc3NC(=O)CC(C)C)CC2)c1`: the “hERG current change (%, negative = inhibition) at 10uM” value is listed as 8.16%.
